# Experimental data from PubChem BioAssay AID588855 (National Center for Advancing Translational Sciences (NCATS), 2011).
# About 5,000 (1.2%) of roughly 410,000 compounds were called active. Entries that show only a call come without a potency. The shares of active, inactive and inconclusive entries below differ from those in the screen. Calls follow the shape of the dose curve; as a rule, active = well fitted inhibition curve with a large enough effect; inconclusive = small, poorly fitted or top-dose-only effect; inactive = no such curve, though single readings can be large or run the other way. Potencies of inconclusive entries are doubtful fits and often do not repeat.
# Assay: qHTS for Inhibitors of TGF-b; also: nearly all actives have a fitted effect of over 65% in size
# Conditions: HepG2 CAGA-GFP TGF-b/SMAD3 reporter, GFP fluorescence, 18 h, TGF-beta stimulated, 500 pg/mL final; series mostly up to 46.1 µM
# Procedure, shortened: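 First, reporter cells (HEPG2 CAGA-GFP) rested 2 h at 37 degrees C. Next, compounds were pinned in and TGF-beta added to 500 pg/mL final. After 18 h, GFP was imaged per cell and summed per well.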
# Potency is read from the fitted curve at half-maximal effect; tags tell the direction and shape of the fitted curve.
row,SMILES,Potency
1,CC1=NN(c2ccc([N+](=O)[O-])cc2)C(=O)C1,"inconclusive: 10 µM [inhibitor, partial curve, poor fit]"
2,Cc1ccc(C(=O)NCCc2ccc(S(=O)(=O)N3CCCC3)cc2)cc1,inactive
3,COCCCNC(=O)c1ccc2sc(C3=C[C@@H](O)[C@@H](O)[C@@H](CO)O3)nc2c1,inactive
4,CCC(C)N(C(=O)CSc1nnnn1-c1ccccc1OC)C1CCS(=O)(=O)C1 (stereo not drawn),inactive
5,COc1ccccc1N1CCN(C(=O)c2ccc(COc3cccc4c3OC(C)(C)C4)cc2)CC1,"inconclusive: 20 µM [inhibitor, partial curve, poor fit]"
6,C[C@H](CO)N1C[C@H](C)[C@@H](CN(C)C(=O)Nc2ccccc2)Oc2cc(Br)ccc2S1(=O)=O,inactive
7,O=C(c1cnc2cc(-c3ccccc3)nn2c1)c1cc([N+](=O)[O-])ccc1O,"inconclusive: 5.01 µM [inhibitor, full curve, poor fit]"
8,N#Cc1ccc(OCC(=O)Nc2ccc(S(=O)(=O)N3CCOCC3)cc2)cc1,inactive
9,O=C(C1CCCN(S(=O)(=O)c2cccc3nonc23)C1)N1CCN(c2cccc(Cl)c2)CC1 (stereo not drawn),"inconclusive: 25.1 µM [inhibitor, single point]"
10,Cn1nc(C(C)(C)C)cc1C(=O)N1CCCC(c2cc(C(=O)Nc3ccccc3Cl)no2)C1 (stereo not drawn),inactive
11,Cc1ccc(S(=O)(=O)N(C)C)cc1NC(=O)C(C)N(C)Cc1sccc1C (stereo not drawn),"inconclusive: 35.5 µM [inhibitor, single point]"
12,CSc1ccc(CCNC(=O)CCc2c(C)nc3c(-c4ccccc4)c(C)nn3c2C)cc1,"inconclusive: 7.94 µM [inhibitor, partial curve]"
13,CCCCc1c(O)nc(SCC(=O)N2CCOCC2)n(-c2ccccc2OC)c1=O,inactive
14,CC(CCC(C)C(C)(C)C)[C@@H]1CC[C@H]2C3C[C@H](OS(O)(=S)=S)[C@H]4C[C@H](OS(O)(=S)=S)[C@@H](OS(O)(=S)=S)C[C@]4(C)[C@H]3CC[C@]12C (stereo partly drawn) (tested in a mixture with another compound),"inconclusive: 31.6 µM [inhibitor, single point]"
15,COc1ccc(S(=O)(=O)NCCc2nnc3ccc(SCC(=O)Nc4ccc(C(F)(F)F)cc4)nn23)cc1,inactive
16,COc1cccc(-c2cnc(C(O)c3cccc(CN4CCCCC4)c3)[nH]2)c1 (stereo not drawn),inactive
17,CCOC(=O)C1=CCN(S(=O)(=O)c2ccc(C)cc2)C1c1ccc(Br)cc1 (stereo not drawn),"inconclusive: 35.5 µM [inhibitor, single point]"
18,CC(=O)Nc1cccc(NC(=O)CSc2cn(CC(=O)N(C(C)C)C(C)C)c3ccccc23)c1,"inconclusive: 35.5 µM [inhibitor, single point]"
